Reference: the supplement of paper PMC10338343
± gives the standard deviation. The entries are a selection whose mix differs from that of the whole data set.

test system: MIWI (PIWIL1) piRISC loaded with L1MC piRNA (30 nt); test: pre-steady-state target cleavage rate (min^-1); MIWI and MILI are mouse PIWI proteins and EfPiwi is from a freshwater sponge; tags in brackets are library labels; higher = faster piRNA-guided slicing of the target; conditions: guide: L1MC piRNA 5'p-UAACUAAAUACUAUGCAAGCUGUAGGUCCU; auxiliary factor: 500 nM mouse GTSF1
Method in brief: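 In Cleave-'n-Seq, a transcribed, DNA-blocked target RNA library (0.1 nM) was combined with 1 nM active affinity-purified piRISC bearing one synthetic guide, with or without 500 nM GTSF1 partner protein. Reactions ran in HEPES–potassium acetate buffer at 33 °C for 0–8 or 0–960 min. Uncleaved targets were sequenced and normalised to depth and to weakly complementary targets, three trials were pooled, and k3 was capped at 0.0001 min^-1. The pre-steady-state cleavage rate was obtained by fitting a burst-and-steady-state model.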

| Sequence | pre-steady-state target cleavage rate |
| --- | --- |
| UCCUGGAUCAGCUUGCACAGUAUUUAGUUA | 0.959 ± 0.035 |
| UGGACCUUCAGCUUCCAUAGUAUUUAGUUA | 0.0296 ± 0.0063 |
| UCCUGGAUCAGAUUGCAUAGUAUUUAGUUA | 0.442 ± 0.028 |
| UCCUGGAUGACUUGCAUAGUAUUUAGUUA | 0.412 ± 0.03 |
| UCGAGCUACAGCUUGCAUACUAUUUAGUUA | 0.385 ± 0.018 |
| AGGACCUACAGGUUGCAUAGUAUUUACUUA | 0.38 ± 0.054 |
| UCCUGGAACAGCUUGCAUAGUAUUUAUUUA | 0.305 ± 0.034 |
| UGGACCUACAGCUUGGAUAGUAUUUAGUUA | 1.65 ± 0.068 |
| UCCAGCUACAGCUUGCAUAGAAUUUAGUUA | 0.377 ± 0.031 |
| UCCUGCUACAGCUUGCAUAGUAGUUUAGUUA | 0.344 ± 0.028 |
| UCCUGGAUCAGGUUGGAUAGUAUUUAGUUA | 0.375 ± 0.042 |
| UCCUGGAUGUCCCUUGCAUAGUAUUUAGUUA | 0.131 ± 0.026 |
| UCCUGGAACACCUUGGAUAGUAUUUAGUUA | 0.286 ± 0.038 |
| AGGAGCUACAGCUUGCAUAGUAUUAAGUUA | 0.783 ± 0.065 |
| UCCACCUACAGCUUGCUAUGUAUUUAGUUA | 0.132 ± 0.014 |
| UCCUGGAUGUGCAUGCAUAGUAUUAAGUUA | 0.0132 ± 0.0032 |
| AGGACCAACAGCUUGCUUAGUAUUUAGUUA | 1.31 ± 0.066 |
| UCCUGGAUGAGCUUGCAUAGUAUAAAGUUA | 0.313 ± 0.037 |
| UCCUGGAUCAGCUUGCAAAGUAUUAAGUUA | 0.533 ± 0.04 |
| UCCUGGAACAGCUUGCAUAGUAUUUUGAUA | 0.232 ± 0.029 |

| Sequence | pre-steady-state target cleavage rate |
| --- | --- |
| UCGACCUUGAGCUUGCAUAGUAUUUAGAAA | 0.439 ± 0.059 |
| UCCUGGAUGUGCUUGCAUACUAUUUAGUUA | 0.0877 ± 0.01 |
| UCCUGGUACAGCUAGCAUAGUAUUUACUUA | 0.186 ± 0.041 |
| UCCUGGUACAGCUUGCAUACUAAUUAGUUA | 0.136 ± 0.028 |
| UCCUGGAUCUCGUUGCAUAGUAUUUAGUAA | 0.0309 ± 0.0067 |
| UCCUGGUACAGGCUUGCAUAGUAUUUAGUUA | 0.498 ± 0.059 |
| UCCUGCUACAGCUUGCAAAGUAUUUAGUAA | 0.378 ± 0.039 |
| UCCACGAUCAGCUUGCAUAGUAUUUAGAAA | 0.444 ± 0.044 |
| UCCUGCUACAGCUAGCAUAGUAAUUAGUUA | 0.707 ± 0.061 |
| UCCACACUACAGCUUGCAUAGUAUUUAGUUA | 0.683 ± 0.047 |
| UCCUCCUACAGCUUGAAUAGUAUUUAGUUA | 1.15 ± 0.036 |
| UCCUGGAUCAGCUUGCAGAGUAUUUAGUUA | 0.405 ± 0.038 |
| UGGACCUCAGCUUGCAUAGUAUUUAGUUA | 1.43 ± 0.094 |
| UCCAGCUACAGCAUGCAUAGUAUUUAGUUA | 0.934 ± 0.046 |
| UCCUGGUACAGCUUGCAUAGUAUUUACAUA | 0.111 ± 0.023 |
| UCCACCUACAGCUUGCAUAGUAUUUACAUA | 0.288 ± 0.043 |
| UCCUGGAUCUGCAUGCAUAGUAUUUAGUUA | 0.204 ± 0.024 |
| UCCUGGUGACAGCUUGCAUAGUAUUUAGUUA | 1.28 ± 0.055 |
| UCCUGCUACACCUUGCAUAGUUUUUAGUUA | 0.172 ± 0.028 |
| ACGACCUACAGCUUGCAUAGUAUUUAGUUA | 1.56 ± 0.064 |

same assay, conditions: guide: L1MC piRNA 5'p-UAACUAAAUACUAUGCAAGCUGUAGGUCCU; auxiliary factor: none (no GTSF1)

| Sequence | pre-steady-state target cleavage rate |
| --- | --- |
| UCCUGGAUCAGCUUGCACAGUAUUUAGUUA | 0.0607 ± 0.013 |
| UGGACCUUCAGCUUCCAUAGUAUUUAGUUA | 0.00372 ± 0.0019 |
| UCCUGGAUCAGAUUGCAUAGUAUUUAGUUA | 0.00557 ± 0.0017 |
| UCCUGGAUGACUUGCAUAGUAUUUAGUUA | 0.0206 ± 0.0053 |
| UCGAGCUACAGCUUGCAUACUAUUUAGUUA | 0.0331 ± 0.0074 |
| AGGACCUACAGGUUGCAUAGUAUUUACUUA | 0.0386 ± 0.008 |
| UCCUGGAACAGCUUGCAUAGUAUUUAUUUA | 0.0214 ± 0.0085 |
| UGGACCUACAGCUUGGAUAGUAUUUAGUUA | 0.0735 ± 0.013 |
| UCCAGCUACAGCUUGCAUAGAAUUUAGUUA | 0.0262 ± 0.0063 |
| UCCUGCUACAGCUUGCAUAGUAGUUUAGUUA | 0.00542 ± 0.0022 |
| UCCUGGAUCAGGUUGGAUAGUAUUUAGUUA | 0.00595 ± 0.003 |
| UCCUGGAUGUCCCUUGCAUAGUAUUUAGUUA | 0.0116 ± 0.0034 |
| UCCUGGAACACCUUGGAUAGUAUUUAGUUA | 0.00651 ± 0.0022 |
| AGGAGCUACAGCUUGCAUAGUAUUAAGUUA | 0.0457 ± 0.0092 |
| UCCACCUACAGCUUGCUAUGUAUUUAGUUA | 0.00491 ± 0.0018 |
| UCCUGGAUGUGCAUGCAUAGUAUUAAGUUA | 0.00357 ± 0.0033 |
| AGGACCAACAGCUUGCUUAGUAUUUAGUUA | 0.0459 ± 0.0084 |
| UCCUGGAUGAGCUUGCAUAGUAUAAAGUUA | 0.00736 ± 0.0033 |
| UCCUGGAUCAGCUUGCAAAGUAUUAAGUUA | 0.00937 ± 0.0035 |
| UCCUGGAACAGCUUGCAUAGUAUUUUGAUA | 0.0117 ± 0.0035 |

| Sequence | pre-steady-state target cleavage rate |
| --- | --- |
| UCGACCUUGAGCUUGCAUAGUAUUUAGAAA | 0.00608 ± 0.0026 |
| UCCUGGAUGUGCUUGCAUACUAUUUAGUUA | 0.0191 ± 0.0037 |
| UCCUGGUACAGCUAGCAUAGUAUUUACUUA | 0.0109 ± 0.0038 |
| UCCUGGUACAGCUUGCAUACUAAUUAGUUA | 0.00652 ± 0.0025 |
| UCCUGGAUCUCGUUGCAUAGUAUUUAGUAA | 0.00329 ± 0.0021 |
| UCCUGGUACAGGCUUGCAUAGUAUUUAGUUA | 0.0384 ± 0.0089 |
| UCCUGCUACAGCUUGCAAAGUAUUUAGUAA | 0.0112 ± 0.003 |
| UCCACGAUCAGCUUGCAUAGUAUUUAGAAA | 0.00814 ± 0.0028 |
| UCCUGCUACAGCUAGCAUAGUAAUUAGUUA | 0.0049 ± 0.0018 |
| UCCACACUACAGCUUGCAUAGUAUUUAGUUA | 0.0447 ± 0.0063 |
| UCCUCCUACAGCUUGAAUAGUAUUUAGUUA | 0.0248 ± 0.0051 |
| UCCUGGAUCAGCUUGCAGAGUAUUUAGUUA | 0.0221 ± 0.0054 |
| UGGACCUCAGCUUGCAUAGUAUUUAGUUA | 0.055 ± 0.011 |
| UCCAGCUACAGCAUGCAUAGUAUUUAGUUA | 0.0212 ± 0.0041 |
| UCCUGGUACAGCUUGCAUAGUAUUUACAUA | 0.0065 ± 0.0028 |
| UCCACCUACAGCUUGCAUAGUAUUUACAUA | 0.0115 ± 0.0036 |
| UCCUGGAUCUGCAUGCAUAGUAUUUAGUUA | 0.00439 ± 0.002 |
| UCCUGGUGACAGCUUGCAUAGUAUUUAGUUA | 0.13 ± 0.027 |
| UCCUGCUACACCUUGCAUAGUUUUUAGUUA | 0.0199 ± 0.0073 |
| ACGACCUACAGCUUGCAUAGUAUUUAGUUA | 0.0997 ± 0.017 |
